Experimental data from the RNAGym collection of RNA variant scans (doi:10.1093/nar/gkz1192).
The source gives no read counts; variants with many changes may rest on few reads.

B1: CPEB3 Ribozyme (parent)
chain: UAACAGGGGGCCACAGCAGAAGCGUUCACGUCGCAGCCCCUGUCAGAUUCUGGUGAAUCUGCGAAUUCUGCUGUAUAUCUC

Variants of: B1
Assay: self-cleavage, relative activity (ratio to wild type); higher = more cleavage; in vitro, sequencing
Summary of the method: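 After error-prone PCR and barcoding, CPEB3 ribozyme mutant libraries were transcribed with T7 RNA polymerase at 37°C for 5 hours, then given 15 min with DNase I before an EDTA stop, and they cleaved during both steps. Reverse transcription with template switching preceded Illumina sequencing. Relative activity divides a variant's cleaved/total read fraction by the unmutated ribozyme's. At least 5 reads were required per variant, and three batches were averaged.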

Row | Variant | self-cleavage
1 | UAACAGGGAGCCACAGCAGAAGCGUUCACGUCGCAGCCCCUGUCAGACUCUGGUGAAUCUGCGAAUUCUGCUGUAUAUCCC | 0.07
2 | UAACAGGGAGCCACAGCAGAAGCGUUCACGUCGCAGCCCCUGUCAGAUUCUGGUGAAUCUGCGAAUUCUGCUGAACAUCUC | 0.37
3 | UAACAGGGAGCCACAGCAGAAGCGUUCACGUCGCAGCCCCUGCCAGGUCCUGGUGAAUCUGCGAAUUCUGCUGUAUAUCUC | 0.38
4 | UAACAGGGAGCCACAGCAGAAGCGUUCACGUCGCAGCCCCUGUCAGAUCCUGGUGAAUCCGCGAAUUCUGCUGUAUAUCUC | 0.06
5 | UAACAGGGCGCCACAGCAGUAGCGUUCACGUCGCAGCUCCUGUCAGAUUCUGGUGAAGCUGCGAGUUCUGCUGCAUACCUC | 0.02
6 | UAACAGGGAGCCACAGCAGAAGCGUUCACGUCGCAGCCCCUGUCAGAUUCUGGUGAAUCUGCGAAUUCAGCCGUGUAUCUC | 0.11
7 | UAACAGGGCGCCACAGCAGUAGCGUUCGCGUCGCAGCCCCUGUCAGAUUCUGGCGAAUCUGCGAAUUCUGCAGUAUAUCUC | 0.11
8 | UAACAGGGCGCCACAGCAGAAGCGCUCACGUCGCAGCCCCUGUCAGAUUCUGGUGAAUCUGCGAAUUCUGCUGUAUAGCUC | 0.19
9 | UAACAGGGCGCCCCAGCAGAAGCGUUCACGUCGCGGCACCUGUCAGAUUCUGGUGAAUCUGCGAAUUCUGCUGUAUAUCUC | 1.05
10 | UAACAGGGAGCCACAGCAGAAGCGUUCACGUCGCAGCCCCUGUCAGAUACUGGUGAAUCUGCGAACUCUGCUGUAUAUCUC | 0.16
11 | UAACAGGGCGCCACAGCAGAAGCGCUCACGUCGCAGCCCCUGUCUGAUUCUGGUGAAUCUGCGAAUUCUGCUGUAUAUCUC | 0.23
12 | UAACAGGGAGCCACAGCAGAAGCGUUCACGUCGCAGCCCCUGUCAGAAUCUGGUGAAUCCGCGAAUUCUGCUGUAUAUUUC | 0.03
13 | UAACAGGGAGCCACAGCAGAAGCGUUCACGUCGCAGCCCCUGUCAGAUUCUGGUGAAUCUGCGAAUACUGCUGUAUAACUC | 0.18
14 | UAACAGGGCGCCACAGCAGGAGCGUUCACGUCGCAGCCCCUGUCAGACUCUGGUGUAUCUGCGAAUUCUGCUGUAUAUCUC | 0.24
15 | UAACAGGGCGCCACCGCAGAAGCGUUCACGUCGCGGCCCCUGUCAGAUUCAGGUGAAUCAGCGAUUUCUGCUGUAUAUCUC | 0.05
16 | UAACAGGGAGCCACAGCAGAAGCGUUCACGUCGCAGCCCCUGUCAGAUUCUGGUGAAACUGCGAGUUCUGCCGUAUAUCUC | 0.1
17 | UAACAGGGCGCCACAGCAGAAGCGUUCGCGUCGCAGCCCCUGUCAGAUUCUGGUGGAUCUGCGAAUUCUGCUGUAUAUCUC | 0.4

Row | Variant | self-cleavage
18 | UAACAGGGAGCCACAGCAGAAGCGUUCACGUCGCAGCCCCUGUCAGAUCCUGGUGGAUCAGCAAACUCUGCUGUAUAUCUC | 0.12
19 | UAACAGGGAGCCACAGCAGAAGCGUUCACGUCGCAGCCCCUGUCAGAUUCUGGUGAAUCUGCGAAUUCAGCAGUAUAUCUC | 0.39
20 | UAACAGGGCGCCUCAGCAGAAGCGUUCAUGUCGCAGCCCCUGCCAGACUCUGGUGAAUCUGCGAAUUCUGCUGCAUAUCUC | 0.05
21 | UAACAGGGCGCCACAGCAGAAGCGUCCACGUCGCAGCCCCUGUCAGAUUCUGGUGAAUCUGCGAAUUCUGCGGUAUAUCUC | 0.21
22 | UAACAGGGCGCCACAGCAGAGGCGUUCACGUCGCAGCCCCUGUCAGAUUCUGGUGAACCUGCGAAUUCUGCUGUAUAUCUC | 0.08
23 | UAACAGGGCGCCACAGCAGAAGCGUUCGCGUCGCAGCCCCUGUCAGAUUCUGGUGAAUCUGCGAAUCCUGCUGUAUAUCUC | 0.1
24 | UAACAGGGCGCCACAGCAGUAGCGUUCACGUCGCAGCCCCUGUCAGUUUCUGGUGAAUCUGCGAAUUCUGCUGUAUAUCUC | 0.12
25 | UAACAGGGCGCCACAGCGGAAGCGUCCACGUCGCAGCCCCUGUCAGAUUCUGGUGAAUCUGCGAGUACUGCUGUAUAUCUC | 0.03
26 | UAACAGGGCGCCACAGCAGAUGCGUUCACGUCGCAGCCCCUGACAGAUUCUGGUGAAUCUGCGAAUUCUGCAGUAUGUCUC | 0.18
27 | UAACAGGGAGCCACAGCAGAAGCGUUCACGUCGCAGCCCCUGUCAGAUUCUGGCGAAUCUGCGUAUUCUGCUGUAUAUCUC | 0.11
28 | UAACAGGGCGCCACGGCAGAAGCGUUCACGUCGCAGCCCCUGUCAGAUUCUGGUGAAUCUGCUAAUUCUGCUGUAUCUCUC | 0.28
29 | UAACAGGGCGCCACAGCAGAAGCGUCCACGUCGCAGCCCCCGUCAUAUUCUGGUGGAUCUGCGAAUUCUGCUGUAUAUCUC | 0.07
30 | UAACAGGGCGCCACAGCAGAAGCGUUCUCGUCGCAGCCCCUGUUAGAUUCUGGUGAAUCUGCGAAUUCCGCUGUAUAUCUC | 0.13
31 | UAACAGGGCGCCGCGGCAGAAGCGUUCACGUCGCUGCCCCUGUCCGAUUCAGGUGAAUCUGCGAAUUCUGCUGUAUAUCUC | 0.02
32 | UAACAGGGCGCCACAGCAGAGGCGAUCACGUCGCAGCCCCUGUCUGUUUCUGCUGAAUCUGCGAAUUCUGCUGUAUAUCUC | 0.05
33 | UAACAGGGAGCCACAGCAGAAGCGUUCACGUCGCAGCCCCUGACAGACUCUGGUGAAUCUGCGAAUUCUGCCGUACAUCUC | 0.05
34 | UAACAGGGAGCCACAGCAGAAGCGUUCACGUCGCAGCCCCUGUCAGAUCCUGGUGAGUCUGCGAAUUCCGCUGUAUAUCUC | 0.06
